The supplement of paper PMC4604168 (melanoma cell lines)
Some of the results follow. Most values come without repeats; read them as rough.

Experiments:
Assay in all cases: cell count relative to DMSO control; melanoma cells; higher = more viable cells
Conditions in all cases: library dose: standard library concentration; 72 h
G361 = system: G361
IPC-298 = system: IPC-298
IST-MEL1 = system: IST-MEL1
LB2518-MEL = system: LB2518-MEL
LOXIMVI = system: LOXIMVI
MEL-HO = system: MEL-HO
MZ2-MEL = system: MZ2-MEL
MeWo = system: MeWo
RPMI7951 = system: RPMI7951
RVH-421 = system: RVH-421
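Further: cells treated in 1,536-well plates, then fixed and DAPI-stained, with nuclei counted from automated high-throughput microscope images.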

Row | SMILES | cell count (G361) [%] | cell count (IPC-298) [%] | cell count (IST-MEL1) [%] | cell count (LB2518-MEL) [%] | cell count (LOXIMVI) [%] | cell count (MEL-HO) [%] | cell count (MZ2-MEL) [%] | cell count (MeWo) [%] | cell count (RPMI7951) [%] | cell count (RVH-421) [%]
1 | O=c1[nH]nc(Sc2ncc([N+](=O)[O-])s2)n1-c1ccc2c(c1)OCCO2 + Cn1c(Nc2ccc(C(F)(F)F)cc2)nc2cc(Oc3ccnc(-c4ncc(C(F)(F)F)[nH]4)c3)ccc21 [CHIR265] (first compound 1 µM, partner dose 0.4 µM) | 34.9 | 41.1 | 73.1 | 37 | 97.6 | 62.2 | 70.1 | 68.4 | 42.8 | 60
2 | O=c1[nH]nc(Sc2ncc([N+](=O)[O-])s2)n1-c1ccc2c(c1)OCCO2 + C#Cc1cccc(Nc2ncnc3cc(OCCOC)c(OCCOC)cc23)c1 [erlotinib] (first compound 1 µM, partner dose 4 µM) | 75.4 | 67.5 | 95.8 | 69.8 | 65.5 | 79 | 70 | 78.7 | 63.9 | 58.5
3 | O=C(O)c1ccc(-c2c[nH]c3ncc(-c4ccccc4)cc23)cc1C1CCCC1 + N#Cc1c(O)c2c(-c3ccc(-c4ccccc4O)cc3)csc2[nH]c1=O [A769662] (first compound 0.8 µM, partner dose 10 µM) | 77.9 | 95.3 | 75.4 | 90.5 | 118 | 82.7 | 52.4 | 94.3 | 68.3 | 86.2
4 | O=c1[nH]nc(Sc2ncc([N+](=O)[O-])s2)n1-c1ccc2c(c1)OCCO2 + Cn1cncc1[C@@](N)(c1ccc(Cl)cc1)c1ccc2c(c1)c(-c1cccc(Cl)c1)cc(=O)n2C [tipifarnib] (first compound 1 µM, partner dose 0.05 µM) | 82 | 109 | 76.8 | 84.2 | 96.9 | 109 | 112 | 93.1 | 78.5 | 91.1
5 | Cn1cncc1[C@@](N)(c1ccc(Cl)cc1)c1ccc2c(c1)c(-c1cccc(Cl)c1)cc(=O)n2C [tipifarnib] + Oc1nc(-c2ccc(C(F)(F)F)cc2)nc2c1CSCC2 [XAV939] (first compound 0.05 µM, partner dose 10 µM) | 82.5 | 81 | 89.2 | 85.1 | 88.1 | 90.6 | 95.1 | 90.5 | 67.5 | 79.2
6 | C[C@@H]1CCN(C(=O)CC#N)C[C@@H]1N(C)c1ncnc2[nH]ccc12 + NCC(=O)Nc1ccc(-n2nc(C(F)(F)F)cc2-c2ccc3c(ccc4ccccc43)c2)cc1 [OSU03012] (first compound 5 µM, partner dose 5 µM) | 74.6 | 66.7 | 95.4 | 108 | 72.1 | 85.6 | 106 | 94.9 | 118 | 112
7 | COc1cc(Nc2ncc(F)c(Nc3ccc4c(n3)NC(=O)C(C)(C)O4)n2)cc(OC)c1OC [Tamatinib] + O=C(Nc1cccc(Cl)c1)Nc1ncc(CCNc2ncnc3ccsc23)s1 [SNS314] (first compound 2 µM, partner dose 0.004 µM) | 51.7 | 55.4 | 451 | 66.2 | 35.8 | 63 | 56 | 48.8 | 23.7 | 60.8
8 | O=c1[nH]nc(Sc2ncc([N+](=O)[O-])s2)n1-c1ccc2c(c1)OCCO2 + C=C(c1ccc(C(=O)O)cc1)c1cc2c(cc1C)C(C)(C)CCC2(C)C [Bexarotene] (first compound 1 µM, partner dose 10 µM) | 83.6 | 79.7 | 82.2 | 98.8 | 106 | 93.4 | 93.1 | 98.8 | 102 | 92.4
9 | C[C@@H]1CCN(C(=O)CC#N)C[C@@H]1N(C)c1ncnc2[nH]ccc12 + O=C(O)c1ccc(-c2c[nH]c3ncc(-c4ccccc4)cc23)cc1C1CCCC1 [GSK650394] (first compound 5 µM, partner dose 0.8 µM) | 63.1 | 101 | 24.4 | 99.5 | 75.7 | 69.6 | 94.3 | 95.3 | 111 | 81.5
10 | CC1(C)NC(=O)N(c2ccc([N+](=O)[O-])c(C(F)(F)F)c2)C1=O [nilutamide] + O=c1cc(-c2cccc3c2Sc2ccccc2S3)oc(N2CCOCC2)c1 [KU55933] (first compound 5 µM, partner dose 5 µM) | 86.7 | 93.4 | 113 | 99.7 | 136 | 82.6 | 90.1 | 99.7 | 98.2 | 18.2
11 | Cn1cncc1[C@@](N)(c1ccc(Cl)cc1)c1ccc2c(c1)c(-c1cccc(Cl)c1)cc(=O)n2C [tipifarnib] + O=C1NC(=O)/C(=C/c2ccc(-c3ccc(F)cc3O)o2)S1 [AS252424] (first compound 0.05 µM, partner dose 5 µM) | 81.4 | 73.7 | 96 | 74.2 | 79.9 | 69.1 | 76.4 | 80.4 | 92.4 | 82.6
